Reference: the supplement of paper PMC9446081
Screen size: about 39,000 compounds; about 220 (0.56%) showed activity. The list shows a part of the results.
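Also: static incubation at 37 °C against the wild-type strain, values averaged over two biological replicates.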

What follows are compounds tested on Escherichia coli K-12 BW25113 (assay: relative growth (OD600 normalised to plate interquartile mean) (fraction); higher = less growth inhibition, active = 0.2 or less). Settings: 50 µM; LB; incubation time: overnight (16-24 h).
In the case of `C[C@@H]1CN([C@@H](C)CO)C(=O)Cc2cc(NC(=O)Cn3cnnn3)ccc2O[C@@H]1CN(C)S(=O)(=O)c1ccccc1`, the relative growth is reported as inactive: 1.01. With `C[C@H](CO)N1C[C@H](C)[C@@H](CN(C)Cc2ccncc2)Oc2ccc(NC(=O)CCN3CCOCC3)cc2C1=O` the relative growth was inactive: 1.05. In the case of `N#Cc1ccc[nH]c1=O`, the relative growth is reported as inactive: 1.01. `O=C(C[C@@H]1C[C@@H]2c3cc(NC(=O)c4ccc5c(c4)OCO5)ccc3O[C@@H]2[C@@H](CO)O1)NCCc1ccccc1` was tested, and the relative growth was inactive: 1.01. With `C[C@H](CO)N1C[C@H](C)[C@@H](CN(C)S(=O)(=O)c2ccccc2)Oc2c(NS(=O)(=O)c3cn(C)cn3)cccc2C1=O` the relative growth was inactive: 0.979. `COc1ccccc1-c1ccc2n(c1=O)C[C@H]1[C@H](CO)[C@@H](C(=O)NCC3CC3)N(S(C)(=O)=O)[C@@H]21` was tested, and the relative growth was inactive: 0.976. For `Nc1nnc(C2CC2)o1`, the relative growth was inactive: 1.03. In the case of `C[C@H](CO)N1C[C@H](C)[C@H](CN(C)S(=O)(=O)c2cccs2)Oc2c(NC(=O)c3cnccn3)cccc2C1=O`, the relative growth is reported as inactive: 1.02. With `CC(C)NC(=O)N[C@@H]1C=C[C@H](CC(=O)NCCN2CCCC2)O[C@H]1CO` the relative growth was inactive: 0.85. For `Cc1noc(C)c1NC(=O)Nc1ccc2c(c1)C(=O)N([C@@H](C)CO)C[C@H](C)[C@H](CN(C)S(C)(=O)=O)O2`, the relative growth was inactive: 1. With `CO[C@H]1CN(C)C(=O)c2ccc(NC(=O)NC(C)C)cc2OC[C@H](C)N(Cc2ccc(-c3ccccn3)cc2)C[C@@H]1C` the relative growth was inactive: 0.965. `C[C@H](CO)N1C[C@H](C)[C@@H](CN(C)Cc2ccc(Oc3ccccc3)cc2)Oc2ccc(NC(=O)CCC(F)(F)F)cc2CC1=O` was tested, and the relative growth was inactive: 0.965. In the case of `C[C@H](CO)N1C[C@H](C)[C@@H](CN(C)C)Oc2cc(C#C[C@@H](C)O)ccc2S1(=O)=O`, the relative growth is reported as inactive: 0.983. With `Cc1ccc(S(=O)(=O)N(C)C[C@@H]2Oc3c(NC(=O)c4cnccn4)cccc3C(=O)N([C@@H](C)CO)C[C@@H]2C)cc1` the relative growth was inactive: 1. For `COc1ccc2c3c(n(c2c1)C)[C@@H](CO)N(C[C@]13CCN(CC1)C(=O)C1CC1)C(=O)CN1CCOCC1`, the relative growth was inactive: 0.989. With `Cc1cc(O)cc(O)c1C(=O)O` the relative growth was inactive: 0.87. With `C[C@@H]1CCCCO[C@@H](CN(C)S(=O)(=O)c2cccs2)[C@H](C)CN([C@H](C)CO)C(=O)c2cc(NC(=O)NC3CCCCC3)ccc2O1` the relative growth was inactive: 1.03. In the case of `Cn1c2c(c(=O)n(C)c1=O)CN(CC1CC1)CN2`, the relative growth is reported as inactive: 1. In the case of `CN(C)CC(=O)N[C@@H]1CC[C@H](CC(=O)O)O[C@H]1CO`, the relative growth is reported as inactive: 1.01. In the case of `O=c1ccc(=O)n(-c2ccccc2)[nH]1`, the relative growth is reported as inactive: 0.857. For `Cc1n[nH]c(=S)n1N`, the relative growth was inactive: 0.968. With `C[C@@H]1CCCCO[C@@H](CN(C)Cc2ccc(C(=O)O)cc2)[C@H](C)CN([C@@H](C)CO)C(=O)c2cc(NC(=O)Nc3ccccc3)ccc2O1` the relative growth was inactive: 1.01. In the case of `CC(=O)N(C)C[C@@H]1Oc2ncc(C#CC(C)(C)O)cc2C(=O)N([C@H](C)CO)C[C@H]1C`, the relative growth is reported as inactive: 0.991. `C[C@H](CO)N1C[C@H](C)[C@H](CN(C)C(=O)Nc2ccc(C(F)(F)F)cc2)Oc2ccc(NS(C)(=O)=O)cc2CC1=O` was tested, and the relative growth was inactive: 1.03. For `COc1ccc(NC(=O)N(C)C[C@@H]2Oc3ccc(NC(=O)CCN4CCOCC4)cc3CC(=O)N([C@@H](C)CO)C[C@@H]2C)cc1`, the relative growth was inactive: 0.995. In the case of `C[C@H](CO)N1C[C@H](C)[C@@H](CN(C)Cc2ccncc2)OCCCC[C@H](C)Oc2ccc(NC(=O)CCC(F)(F)F)cc2C1=O`, the relative growth is reported as inactive: 0.991. `C[C@@H]1CCCCO[C@H](CN(C)C(=O)Cc2ccccc2)[C@H](C)CN([C@H](C)CO)C(=O)c2cc(NC(=O)c3ccccc3)ccc2O1` was tested, and the relative growth was inactive: 0.958. For `C[C@H]1CN([C@@H](C)CO)C(=O)c2cc(NS(=O)(=O)c3ccccc3)ccc2O[C@@H]1CN(C)Cc1ccc(Oc2ccccc2)cc1`, the relative growth was inactive: 1.01. For `COc1ccc(CN(C)C[C@@H]2OCCCC[C@H](C)Oc3ccc(NC(=O)NC4CCCCC4)cc3C(=O)N([C@@H](C)CO)C[C@@H]2C)cc1`, the relative growth was inactive: 0.982. `CC=Cc1ccc2n(c1=O)C[C@@H]1[C@@H](CO)[C@H](C(=O)NCCc3cn(C)cn3)[C@H]2N1C(=O)C1CC1` was tested, and the relative growth was inactive: 0.99. In the case of `O=C(C[C@H]1CC[C@H]2[C@@H](COC[C@@H](O)CN2S(=O)(=O)c2cccc(Cl)c2)O1)NCc1ccncn1`, the relative growth is reported as inactive: 1.03. In the case of `O=C(C[C@@H]1CC=CCC[C@H](Cc2ccc(F)cc2)C(=O)OC[C@@H](Cc2c[nH]c3ccccc23)NC1=O)N[C@@H](CO)Cc1ccccc1`, the relative growth is reported as inactive: 1.04. `C[C@@H]1CN([C@@H](C)CO)C(=O)c2cc(NS(=O)(=O)c3ccc(F)cc3)ccc2O[C@@H](C)CCCCO[C@H]1CN(C)CC1CCCCC1` was tested, and the relative growth was inactive: 0.983. `COc1ccc(CN(C)C[C@H]2OCCCC[C@H](C)Oc3ccc(NC(=O)c4ccccc4)cc3C(=O)N([C@H](C)CO)C[C@@H]2C)cc1` was tested, and the relative growth was inactive: 0.933. For `C[C@@H]1CN([C@@H](C)CO)C(=O)Cc2cc(NC(=O)Nc3ccc4c(c3)OCO4)ccc2O[C@H]1CN(C)Cc1ccc(Oc2ccccc2)cc1`, the relative growth was inactive: 1.02. For `C[C@H](CCC(=O)NCCS(=O)(=O)O)[C@H]1CC[C@H]2[C@@H]3[C@H](O)C[C@@H]4C[C@H](O)CC[C@]4(C)[C@H]3C[C@H](O)[C@]12C`, the relative growth was inactive: 1.01. In the case of `O=C(C[C@H]1CC[C@H]2[C@@H](COC[C@@H](O)CN2C(=O)Nc2ccc(Cl)c(Cl)c2)O1)NCc1ccncc1`, the relative growth is reported as inactive: 0.987. In the case of `C[C@@H]1CCCCO[C@@H](CN(C)C)[C@@H](C)CN([C@@H](C)CO)C(=O)c2cc(NC(=O)Nc3cccc4ccccc34)ccc2O1`, the relative growth is reported as inactive: 1. For `C[C@@H]1CN([C@H](C)CO)C(=O)c2cc(NC(=O)Cc3cn(C)c4ccccc34)ccc2O[C@@H]1CN(C)CC1CCCCC1`, the relative growth was inactive: 0.938. `C[C@H]1CN([C@@H](C)CO)C(=O)Cc2cc(NS(=O)(=O)c3cn(C)cn3)ccc2O[C@@H]1CN(C)CC1CC1` was tested, and the relative growth was inactive: 0.99. `COc1ccc(NC(=O)Nc2ccc3c(c2)C(=O)N([C@H](C)CO)C[C@H](C)[C@H](CN(C)S(=O)(=O)c2cn(C)cn2)O3)cc1` was tested, and the relative growth was inactive: 0.978. `COCC#Cc1cnc2c(c1)C(=O)N([C@@H](C)CO)C[C@@H](C)[C@H](CN(C)S(=O)(=O)c1ccccc1)O2` was tested, and the relative growth was inactive: 1. With `C[C@@H]1CN([C@H](C)CO)C(=O)Cc2cc(NC(=O)Nc3ccc(F)cc3)ccc2O[C@@H]1CN(C)C(=O)Nc1cccc2ccccc12` the relative growth was inactive: 0.994. In the case of `Cc1ccc(S(=O)(=O)N(C)C[C@@H]2Oc3ccc(NS(=O)(=O)c4ccc(F)cc4)cc3C(=O)N([C@@H](C)CO)C[C@H]2C)cc1`, the relative growth is reported as inactive: 0.996. For `C[C@H](CO)N1C[C@H](C)[C@H](CN(C)Cc2ccncc2)Oc2ccc(NS(=O)(=O)c3ccccc3)cc2CC1=O`, the relative growth was inactive: 1.03. For `CCc1cn([C@H]2C[C@H](O)[C@@H](CO)O2)c(=O)[nH]c1=O`, the relative growth was inactive: 0.887. `C[C@@H]1CCCCO[C@@H](CN(C)CC2CCCCC2)[C@H](C)CN([C@H](C)CO)C(=O)c2cc(NS(=O)(=O)c3ccc(F)cc3)ccc2O1` was tested, and the relative growth was inactive: 0.99. `O=C(C[C@@H]1CC[C@H]2[C@@H](COC[C@H](O)CN2C(=O)c2ccccn2)O1)NC1CCC1` was tested, and the relative growth was inactive: 0.986. With `CC(C)(C)NCC(O)COc1cccc2c1CC(O)C(O)C2` (configuration not stated) the relative growth was inactive: 1.04. For `CO[C@@H]1CN(C)C(=O)c2cc(NS(=O)(=O)c3ccccc3C)ccc2OC[C@@H](C)N(S(C)(=O)=O)C[C@H]1C`, the relative growth was inactive: 1.02. With `C[C@@H]1CCCCO[C@@H](CN(C)S(C)(=O)=O)[C@H](C)CN([C@@H](C)CO)C(=O)c2cc(N(C)C)ccc2O1` the relative growth was inactive: 0.983. In the case of `C[C@@H]1C=CNN1C(=O)c1cccnc1`, the relative growth is reported as inactive: 0.998. `C[C@H]1CN([C@@H](C)CO)C(=O)c2c(c3ccccc3n2C)-c2ccccc2CO[C@H]1CN(C)Cc1ccc(-c2ccccc2)cc1` was tested, and the relative growth was inactive: 1.02. With `O=C(C[C@H]1C[C@H]2c3cc(NS(=O)(=O)c4ccc(F)cc4)ccc3O[C@H]2[C@H](CO)O1)NCc1ccccn1` the relative growth was inactive: 0.998. `C[C@@H]1CN([C@@H](C)CO)C(=O)c2c(c3ccccc3n2C)-c2ccccc2CO[C@H]1CN(C)C(=O)Nc1cccc(Cl)c1Cl` was tested, and the relative growth was inactive: 1.03. For `Cc1noc(C)c1S(=O)(=O)Nc1ccc2c(c1)C(=O)N([C@@H](C)CO)C[C@@H](C)[C@@H](CN(C)Cc1ccccc1)O2`, the relative growth was inactive: 1. With `C[C@H](CO)N1C[C@H](C)[C@H](CN(C)C(=O)Nc2cccc3ccccc23)Oc2ccc(NC(=O)Nc3ccc(C(F)(F)F)cc3)cc2C1=O` the relative growth was inactive: 1.01. `O=C1O[C@H](c2ccccc2)[C@H](c2ccccc2)N2[C@H]1[C@@H](C(=O)NC[C@@H](O)c1ccccc1)[C@]1(C(=O)Nc3ccc(C#CC4=CCCCC4)cc31)[C@H]2c1ccccc1OCCO` was tested, and the relative growth was inactive: 1.04. `C[C@H](CO)N1C[C@H](C)[C@H](CN(C)Cc2ccncc2)Oc2ncc(C#Cc3cccc(F)c3)cc2C1=O` was tested, and the relative growth was inactive: 0.985. For `C[C@@H]1CN([C@@H](C)CO)C(=O)c2cc(-c3cccc(C#N)c3)cnc2O[C@@H]1CN(C)C(=O)C1CCOCC1`, the relative growth was inactive: 0.995. With `COc1ccc(S(N)(=O)=O)cc1OC` the relative growth was inactive: 1.02. With `COc1ccc(NC(=O)Nc2ccc3c(c2)CC(=O)N([C@@H](C)CO)C[C@@H](C)[C@@H](CN(C)CC2CCCCC2)O3)cc1` the relative growth was inactive: 0.982.
